# Assay results reported in the supplement of paper PMC8728848.
# The list shows a part of the results.
# B1: Alpha-agglutinin (Saccharomyces cerevisiae) (protein)
# chain: MFTFLKIILWLFSLALASAININDITFSNLEITPLTANKQPDQGWTATFDFSIADASSIREGDEFTLSMPHVYRIKLLNSSQTATISLADGTEAFKCYVSQQAAYLYENTTFTCTAQNDLSSYNTIDGSITFSLNFSDGGSSYEYELENAKFFKSGPMLVKLGNQMSDVVNFDPAAFTENVFHSGRSTGYGSFESYHLGMYCPNGYFLGGTEKIDYDSSNNNVDLDCSSVQVYSSNDFNDWWFPQSYNDTNADVTCFGSNLWITLDEKLYDGEMLWVNALQSLPANVNTIDHALEFQYTCLDTIANTTYATQFSTTREFIVYQGR
# Key:
# Assay in all cases: glycan array binding signal (z-score within array); higher = stronger binding
# Settings in all cases: glycan notation: IUPAC condensed, linker removed
# [1] = target: Fuc(a1-3)[Gal(b1-4)]GlcNAc(b1-4)Gal(b1-4)[Fuc(a1-3)]GlcNAc(b1-4)Gal(b1-4)[Fuc(a1-3)]GlcNAc
# Outline: (§1)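 The Consortium for Functional Glycomics database supplied 3228 glycan arrays, of which those lacking an available protein sequence were dropped. The binding signal, a within-array Z-score, was averaged across arrays of the same protein sequence and across linkers. Negative scores can be read as non-binding.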
# [2] = target: Fuc(a1-3)[Gal3S(b1-4)]GlcNAc
# Outline: as §1
# [3] = target: Fuc(a1-3)[GalNAc(b1-4)]Gal(b1-4)GlcNAc
# Outline: as §1
# Fuc(a1-4)GlcNAc = target: Fuc(a1-4)GlcNAc
# Outline: as §1
# Fuc(b1-3)GlcNAc = target: Fuc(b1-3)GlcNAc
# Outline: as §1
# Gal(a1-2)Gal = target: Gal(a1-2)Gal
# Outline: as §1
# Gal(a1-3)Gal = target: Gal(a1-3)Gal
# Outline: as §1
# Gal(a1-3)Gal(b1-3)Glc = target: Gal(a1-3)Gal(b1-3)Glc
# Outline: as §1
# Gal(a1-3)Gal(b1-3)GlcNAc = target: Gal(a1-3)Gal(b1-3)GlcNAc
# Outline: as §1
# Gal(a1-3)Gal(b1-4)GlcNAc = target: Gal(a1-3)Gal(b1-4)GlcNAc
# Outline: as §1
# [4] = target: Gal(a1-3)Gal(b1-4)[Fuc(a1-3)]GalNAc
# Outline: as §1
# Gal(a1-3)GlcNAc = target: Gal(a1-3)GlcNAc
# Outline: as §1
# [5] = target: Gal(a1-3)[Gal(a1-4)]Gal(b1-4)GlcNAc
# Outline: as §1
# Gal(a1-4)Gal(b1-4)Gal = target: Gal(a1-4)Gal(b1-4)Gal
# Outline: as §1
# Gal(a1-4)Gal(b1-4)GalNAc = target: Gal(a1-4)Gal(b1-4)GalNAc
# Outline: as §1
# Gal(a1-4)GlcNAc = target: Gal(a1-4)GlcNAc
# Outline: as §1
# Gal(a1-6)Glc = target: Gal(a1-6)Glc
# Outline: as §1
# Gal(b1-2)Gal = target: Gal(b1-2)Gal
# Outline: as §1
# Gal(b1-3)Gal = target: Gal(b1-3)Gal
# Outline: as §1
# Gal(b1-3)GalNAc = target: Gal(b1-3)GalNAc
# Outline: as §1
# [6] = target: Gal(b1-3)GalNAc(b1-3)Gal(a1-4)Gal(b1-4)Glc
# Outline: as §1
# [7] = target: Gal(b1-3)GalNAc(b1-3)Gal(b1-4)Glc
# Outline: as §1
# [8] = target: Gal(b1-3)GalNAc(b1-3)Gal(b1-4)GlcNAc
# Outline: as §1
# [9] = target: Gal(b1-3)GalNAc(b1-4)Gal(b1-4)Glc
# Outline: as §1
# [10] = target: Gal(b1-3)GalNAc(b1-4)[Neu5Ac(a2-3)]Gal(b1-4)Glc
# Outline: as §1
# [11] = target: Gal(b1-3)[Fuc(a1-4)]GlcNAc
# Outline: as §1
# [12] = target: Gal(b1-3)[Fuc(a1-4)]GlcNAc(b1-3)Gal(b1-4)GlcNAc
# Outline: as §1
# [13] = target: Gal(b1-3)[Fuc(a1-4)]GlcNAc(b1-3)Gal(b1-4)[Fuc(a1-3)]GlcNAc
# Outline: as §1
# [14] = target: Gal(b1-3)[GlcNAc(b1-6)]GalNAc
# Outline: as §1
# [15] = target: Gal(b1-3)[GlcNAc(b1-6)]GlcNAc
# Outline: as §1
# [16] = target: Gal(b1-3)[Neu5Ac(a2-6)]GalNAc
# Outline: as §1
# [17] = target: Gal(b1-3)[Neu5Ac(a2-6)]GlcNAc
# Outline: as §1
# [18] = target: Gal(b1-3)[Neu5Ac(a2-6)]GlcNAc(a1-4)Gal(b1-4)Glc
# Outline: as §1
# [19] = target: Gal(b1-3)[Neu5Ac(b2-6)]GlcNAc
# Outline: as §1
# [20] = target: Gal(b1-4)GalNAc(a1-3)[Fuc(a1-2)]Gal(b1-4)GlcNAc
# Outline: as §1
# [21] = target: Gal(b1-4)GalNAc(b1-3)[Fuc(a1-2)]Gal(b1-4)GlcNAc
# Outline: as §1
# Gal(b1-4)Glc = target: Gal(b1-4)Glc
# Outline: as §1
binder,measurement,setting,value
B1,glycan array binding signal (z-score),[1],-0.167
same,glycan array binding signal (z-score),[2],-0.164
same,glycan array binding signal (z-score),[3],-0.194
same,glycan array binding signal (z-score),Fuc(a1-4)GlcNAc,-0.216
same,glycan array binding signal (z-score),Fuc(b1-3)GlcNAc,-0.228
same,glycan array binding signal (z-score),Gal(a1-2)Gal,-0.096
same,glycan array binding signal (z-score),Gal(a1-3)Gal,0.117
same,glycan array binding signal (z-score),Gal(a1-3)Gal(b1-3)Glc,-0.222
same,glycan array binding signal (z-score),Gal(a1-3)Gal(b1-3)GlcNAc,-0.208
same,glycan array binding signal (z-score),Gal(a1-3)Gal(b1-4)GlcNAc,-0.248
same,glycan array binding signal (z-score),[4],-0.25
same,glycan array binding signal (z-score),Gal(a1-3)GlcNAc,-0.133
same,glycan array binding signal (z-score),[5],0.062
same,glycan array binding signal (z-score),Gal(a1-4)Gal(b1-4)Gal,-0.105
same,glycan array binding signal (z-score),Gal(a1-4)Gal(b1-4)GalNAc,0.128
same,glycan array binding signal (z-score),Gal(a1-4)GlcNAc,-0.029
same,glycan array binding signal (z-score),Gal(a1-6)Glc,0.966
same,glycan array binding signal (z-score),Gal(b1-2)Gal,-0.205
same,glycan array binding signal (z-score),Gal(b1-3)Gal,-0.217
same,glycan array binding signal (z-score),Gal(b1-3)GalNAc,-0.071
same,glycan array binding signal (z-score),[6],-0.093
same,glycan array binding signal (z-score),[7],8.68
same,glycan array binding signal (z-score),[8],-0.257
same,glycan array binding signal (z-score),[9],-0.045
same,glycan array binding signal (z-score),[10],-0.209
same,glycan array binding signal (z-score),[11],-0.231
same,glycan array binding signal (z-score),[12],-0.23
same,glycan array binding signal (z-score),[13],-0.247
same,glycan array binding signal (z-score),[14],-0.255
same,glycan array binding signal (z-score),[15],-0.008
same,glycan array binding signal (z-score),[16],-0.258
same,glycan array binding signal (z-score),[17],-0.071
same,glycan array binding signal (z-score),[18],0.605
same,glycan array binding signal (z-score),[19],0.11
same,glycan array binding signal (z-score),[20],0.014
same,glycan array binding signal (z-score),[21],0.039
same,glycan array binding signal (z-score),Gal(b1-4)Glc,0.042
